Data: the BET-seq Pho4 binding data (Le et al. 2018)
The list shows a part of the results. The energies were worked out here from pooled read counts, against the library average; single values are noisy.

Biological target: T1, Pho4 (S. cerevisiae) (UniProt P07270)
T1 sequence: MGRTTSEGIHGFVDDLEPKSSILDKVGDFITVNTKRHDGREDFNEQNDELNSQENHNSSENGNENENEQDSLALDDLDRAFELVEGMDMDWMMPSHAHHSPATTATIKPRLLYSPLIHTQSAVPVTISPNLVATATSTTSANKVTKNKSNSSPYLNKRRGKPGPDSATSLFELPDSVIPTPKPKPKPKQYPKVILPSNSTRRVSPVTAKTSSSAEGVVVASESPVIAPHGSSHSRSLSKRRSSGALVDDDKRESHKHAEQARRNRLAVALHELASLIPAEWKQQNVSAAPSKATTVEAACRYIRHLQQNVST
Experiment: relative binding free energy (BET-seq); higher = weaker binding
Conditions: reference: library average

Row | Sequence | relative binding free energy
1 | AAGAGCACGTGTGCGG | -0.19 kcal/mol
2 | TATTCCACGTGGGATG | -0.16 kcal/mol
3 | TTGGACACGTGGAAAT | 0.08 kcal/mol
4 | AGTATCACGTGTAGCG | 0.1 kcal/mol
5 | GTGATCACGTGTTATT | 0.15 kcal/mol
6 | GTCTGCACGTGCGTTT | -0.03 kcal/mol
7 | TTTGGCACGTGGGTTC | -0.15 kcal/mol
8 | GGTAGCACGTGATGGA | -0.05 kcal/mol
9 | AAGTACACGTGAGGTA | 0.24 kcal/mol
10 | TTAGACACGTGATCTG | 0.06 kcal/mol
11 | AGGTTCACGTGTTGGC | 0.31 kcal/mol
12 | TTACGCACGTGGGTGA | -0.39 kcal/mol
13 | CGTTGCACGTGATGTT | 0.17 kcal/mol
14 | GGGTTCACGTGAGCAT | 0.42 kcal/mol
15 | CTTATCACGTGGTAGG | 0.04 kcal/mol
16 | TATTCCACGTGTTGTG | -0.04 kcal/mol
17 | GATGGCACGTGTACGT | -0.01 kcal/mol
18 | TGGGACACGTGAGCGA | 0.22 kcal/mol
19 | TAAGTCACGTGTAGGA | 0.3 kcal/mol
20 | TTGTGCACGTGTGAAC | -0.01 kcal/mol
21 | GCGTACACGTGTTGGT | 0.08 kcal/mol
22 | TGTTCCACGTGATTGT | 0.13 kcal/mol
23 | AGTGCCACGTGGAGTT | -0.15 kcal/mol

Row | Sequence | relative binding free energy
24 | ATGTACACGTGCGAGG | 0 kcal/mol
25 | CTTATCACGTGAAGTT | 0.46 kcal/mol
26 | TTCTGCACGTGGAGGT | -0.01 kcal/mol
27 | ATCAACACGTGTTGGG | 0.14 kcal/mol
28 | TAGACCACGTGTGTTG | 0.01 kcal/mol
29 | CGAGTCACGTGAATTG | 0.42 kcal/mol
30 | GAGCGCACGTGATAGT | 0.18 kcal/mol
31 | TTCTGCACGTGTAAAT | 0.22 kcal/mol
32 | TATGTCACGTGGACAG | 0.01 kcal/mol
33 | TATATCACGTGTATAA | 0.32 kcal/mol
34 | ATGTTCACGTGCGGGG | 0.32 kcal/mol
35 | TCATACACGTGGTTTT | -0.04 kcal/mol
36 | GTGGACACGTGATGTT | 0.2 kcal/mol
37 | TTGTGCACGTGTACAT | -0.14 kcal/mol
38 | ACATTCACGTGGGTGA | 0.03 kcal/mol
39 | GGTGACACGTGGGTAA | -0.14 kcal/mol
40 | GAGCACACGTGGTGGT | -0.07 kcal/mol
41 | GTAGTCACGTGGAATG | 0.01 kcal/mol
42 | GTTTGCACGTGAATTT | 0.4 kcal/mol
43 | GTGGGCACGTGTTCAG | -0.02 kcal/mol
44 | GCGGACACGTGTGTGG | 0.13 kcal/mol
45 | ATGTACACGTGGCGAT | -0.01 kcal/mol
46 | GTGATCACGTGGTTGC | 0.02 kcal/mol

Row | Sequence | relative binding free energy
47 | GATCTCACGTGTTTTT | 0.29 kcal/mol
48 | GGTATCACGTGGTTAA | 0.14 kcal/mol
49 | GTAGTCACGTGGGTCT | -0.06 kcal/mol
50 | ATTTGCACGTGATAAG | 0.07 kcal/mol
51 | TTATACACGTGTAATT | 0.17 kcal/mol
52 | TATGGCACGTGGGGGA | -0.1 kcal/mol
53 | GGTTACACGTGTATGG | 0.15 kcal/mol
54 | AGCGGCACGTGGGGAT | -0.12 kcal/mol
55 | TTGATCACGTGAGATT | 0.34 kcal/mol
56 | GTTTACACGTGCAAGT | 0.12 kcal/mol
57 | TTAGTCACGTGGGGGT | -0.08 kcal/mol
58 | TGGTTCACGTGGTATG | 0.27 kcal/mol
59 | TATTTCACGTGGATAT | 0.2 kcal/mol
60 | AGCATCACGTGTTTTT | 0.17 kcal/mol
61 | TAATACACGTGTCTGG | 0.05 kcal/mol
62 | GTAGGCACGTGGGCGG | -0.2 kcal/mol
63 | AAAGGCACGTGGGTAG | -0.21 kcal/mol
64 | CTGTGCACGTGTTGAA | 0.08 kcal/mol
65 | AGTAGCACGTGTTGAG | 0.05 kcal/mol
66 | GGGCTCACGTGGAGAT | 0.26 kcal/mol
67 | AGATGCACGTGGGCTC | -0.05 kcal/mol
68 | ATAGGCACGTGTCTAT | -0.04 kcal/mol
69 | AGTGTCACGTGCTTGG | -0.04 kcal/mol

Row | Sequence | relative binding free energy
70 | TGGGGCACGTGGGGCG | -0.17 kcal/mol
71 | GGCATCACGTGGGCGG | 0.15 kcal/mol
72 | AGCTACACGTGTCGGG | 0.22 kcal/mol
73 | GAGCTCACGTGTGTGT | 0.17 kcal/mol
74 | TTAGTCACGTGAAAGG | 0.2 kcal/mol
75 | TGTGGCACGTGAGTAG | 0.2 kcal/mol
76 | CATGACACGTGGGGGC | -0.09 kcal/mol
77 | GGCATCACGTGATGCG | 0.3 kcal/mol
78 | TATTACACGTGCGTAG | 0.09 kcal/mol
79 | GCGTGCACGTGGGGCG | -0.19 kcal/mol
80 | CGTTTCACGTGATGCT | 0.36 kcal/mol
81 | GAAGTCACGTGTATTG | 0 kcal/mol
82 | AGGGGCACGTGTTGCG | -0.11 kcal/mol
83 | CTCGTCACGTGATGTG | 0.14 kcal/mol
84 | CGTGGCACGTGCGTGG | -0.22 kcal/mol
85 | TGAGTCACGTGCTAAT | 0.3 kcal/mol
86 | TGGTGCACGTGACTTG | 0.03 kcal/mol
87 | GGGGACACGTGCTGAG | -0.01 kcal/mol
88 | TGGGGCACGTGTATAA | -0.23 kcal/mol
89 | ATAGGCACGTGATAGA | -0.12 kcal/mol
90 | TGGATCACGTGGTCAA | 0.15 kcal/mol
91 | AGGATCACGTGAGGTG | 0.24 kcal/mol
92 | GATATCACGTGGCGTG | 0.06 kcal/mol

Row | Sequence | relative binding free energy
93 | AGAATCACGTGTAGTG | 0.15 kcal/mol
94 | GAGTGCACGTGTGGCT | -0.05 kcal/mol
95 | ACGTACACGTGTGGGG | 0.04 kcal/mol
96 | GATAGCACGTGCTGTT | -0.08 kcal/mol
97 | AGGTACACGTGATAAG | 0.13 kcal/mol
98 | ATTTGCACGTGTCAGT | 0.07 kcal/mol
99 | AGTATCACGTGTGGCG | 0.06 kcal/mol
100 | CGTTGCACGTGAATGT | 0.22 kcal/mol
101 | AATGACACGTGGTTAG | 0.03 kcal/mol
102 | GGAGGCACGTGATTGC | 0.13 kcal/mol
103 | AGGGGCACGTGGGTGG | -0.24 kcal/mol
104 | TATTTCACGTGGAAGT | 0.4 kcal/mol
105 | AATCGCACGTGGTTAG | -0.07 kcal/mol
106 | AATAGCACGTGAGAGT | 0.06 kcal/mol
107 | AGCGGCACGTGGGCAG | -0.24 kcal/mol
108 | GACTTCACGTGAGTTT | 0.56 kcal/mol
109 | GAGCACACGTGTGGGT | 0.06 kcal/mol
110 | TTGGTCACGTGAATGG | 0.31 kcal/mol
111 | GGGAGCACGTGCTCGG | -0.15 kcal/mol
112 | GGTTTCACGTGCTAGT | 0.09 kcal/mol
113 | ATTTTCACGTGCGATA | 0.21 kcal/mol
114 | ATTTTCACGTGTGACG | 0.37 kcal/mol
115 | ATAGACACGTGGGGCG | -0.08 kcal/mol
